Changes are numbered by the printed parent chain. Names and notes keep the numbering of the source. These are yes or no findings as the source states them, for the method shown. For some of these results: Binding seen in cells or lysates may run through a third protein. Some results given as binding are weak or reduced against the parent protein; the word gives no strength. Sequences can lack the tags named with a protein.
T1: STMN1^1–41, yeast two-hybrid fusion (UniProt P16949)
T1 sequence: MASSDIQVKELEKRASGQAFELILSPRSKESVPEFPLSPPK

T2: STMN1^42–149, yeast two-hybrid fusion (UniProt P16949)
T2 sequence: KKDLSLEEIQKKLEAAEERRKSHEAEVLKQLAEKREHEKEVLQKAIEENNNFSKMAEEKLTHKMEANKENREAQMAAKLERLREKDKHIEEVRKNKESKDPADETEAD

T3: full-length STMN1, yeast two-hybrid fusion (UniProt P16949)
T3 sequence: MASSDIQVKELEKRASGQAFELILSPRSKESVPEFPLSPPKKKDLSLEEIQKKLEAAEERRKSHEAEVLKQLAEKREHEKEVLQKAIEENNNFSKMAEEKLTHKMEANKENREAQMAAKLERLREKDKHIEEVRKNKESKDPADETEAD

T4: full-length STMN2, yeast two-hybrid fusion (UniProt Q93045)
T4 sequence: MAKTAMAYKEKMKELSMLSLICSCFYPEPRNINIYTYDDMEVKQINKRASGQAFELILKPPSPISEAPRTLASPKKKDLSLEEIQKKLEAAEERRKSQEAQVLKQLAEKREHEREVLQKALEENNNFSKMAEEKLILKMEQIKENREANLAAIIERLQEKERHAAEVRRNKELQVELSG

T5: GST-STMN1 fusion protein (UniProt P16949)
T5 sequence: T3 sequence

B1: full-length FANCC, yeast two-hybrid fusion (protein, UniProt Q00597 1-558)
chain: MAQDSVDLSCDYQFWMQKLSVWDQASTLETQQDTCLHVAQFQEFLRKMYEALKEMDSNTVIERFPTIGQLLAKACWNPFILAYDESQKILIWCLCCLINKEPQNSGQSKLNSWIQGVLSHILSALRFDKEVALFTQGLGYAPIDYYPGLLKNMVLSLASELRENHLNGFNTQRRMAPERVASLSRVCVPLITLTDVDPLVEALLICHGREPQEILQPEFFEAVNEAILLKKISLPMSAVVCLWLRHLPSLEKAMLHLFEKLISSERNCLRRIECFIKDSSLPQAACHPAIFRVVDEMFRCALLETDGALEIIATIQVFTQCFVEALEKASKQLRFALKTYFPYTSPSLAMVLLQDPQDIPRGHWLQTLKHISELLREAVEDQTHGSCGGPFESWFLFIHFGGWAEMVAEQLLMSAAEPPTALLWLLAFYYGPRDGRQQRAQTMVQVKAVLGHLLAMSRSSSLSAQDLQTVAGQGTDTDLRAPAQQLIRHLLLNFLLWAPGGHTIAWDVITLMAHTAEITHEIIGFLDQTLYRWNRLGIESPRSEKLARELLKELRTQV
B2: C-terminus of FANCC (FANCC^307–558), yeast two-hybrid fusion (domain or fragment, UniProt Q00597 307-558)
chain: GALEIIATIQVFTQCFVEALEKASKQLRFALKTYFPYTSPSLAMVLLQDPQDIPRGHWLQTLKHISELLREAVEDQTHGSCGGPFESWFLFIHFGGWAEMVAEQLLMSAAEPPTALLWLLAFYYGPRDGRQQRAQTMVQVKAVLGHLLAMSRSSSLSAQDLQTVAGQGTDTDLRAPAQQLIRHLLLNFLLWAPGGHTIAWDVITLMAHTAEITHEIIGFLDQTLYRWNRLGIESPRSEKLARELLKELRTQV
B3: FANCC C-terminus construct harboring the L554P mutation (FANCC^307-558-L554P), yeast two-hybrid fusion (domain or fragment, UniProt Q00597 307-558)
chain: B2 chain with L248P
B4: N-terminus of FANCC (FANCC^1–306), yeast two-hybrid fusion (domain or fragment, UniProt Q00597 1-306)
chain: MAQDSVDLSCDYQFWMQKLSVWDQASTLETQQDTCLHVAQFQEFLRKMYEALKEMDSNTVIERFPTIGQLLAKACWNPFILAYDESQKILIWCLCCLINKEPQNSGQSKLNSWIQGVLSHILSALRFDKEVALFTQGLGYAPIDYYPGLLKNMVLSLASELRENHLNGFNTQRRMAPERVASLSRVCVPLITLTDVDPLVEALLICHGREPQEILQPEFFEAVNEAILLKKISLPMSAVVCLWLRHLPSLEKAMLHLFEKLISSERNCLRRIECFIKDSSLPQAACHPAIFRVVDEMFRCALLETD
B5: EGFP-FANCC^L554P (full-length FANCC harboring the L554P mutation) (protein, UniProt Q00597 1-558)
chain: B1 chain with L554P
B6: EGFP-FANCC (GFP-tagged full length FANCC) (protein, UniProt Q00597 1-558)
chain: B1 chain
B7: EGFP-FANCC^55–558 (truncated FANCC mimicking mutations in exon 1) (domain or fragment, UniProt Q00597 55-558)
chain: MDSNTVIERFPTIGQLLAKACWNPFILAYDESQKILIWCLCCLINKEPQNSGQSKLNSWIQGVLSHILSALRFDKEVALFTQGLGYAPIDYYPGLLKNMVLSLASELRENHLNGFNTQRRMAPERVASLSRVCVPLITLTDVDPLVEALLICHGREPQEILQPEFFEAVNEAILLKKISLPMSAVVCLWLRHLPSLEKAMLHLFEKLISSERNCLRRIECFIKDSSLPQAACHPAIFRVVDEMFRCALLETDGALEIIATIQVFTQCFVEALEKASKQLRFALKTYFPYTSPSLAMVLLQDPQDIPRGHWLQTLKHISELLREAVEDQTHGSCGGPFESWFLFIHFGGWAEMVAEQLLMSAAEPPTALLWLLAFYYGPRDGRQQRAQTMVQVKAVLGHLLAMSRSSSLSAQDLQTVAGQGTDTDLRAPAQQLIRHLLLNFLLWAPGGHTIAWDVITLMAHTAEITHEIIGFLDQTLYRWNRLGIESPRSEKLARELLKELRTQV

The binders below were run against T1, STMN1^1–41, yeast two-hybrid fusion (assay: two-hybrid; … Two-Hybrid System 3, constructs co-transformed into AH109 S. cerevisiae, growth on selective media and reporter gene activation; each cDNA in either pGBKT7 or pGADT7; at least three times in triplicate).

| binding | Binder |
| --- | --- |
| no binding | B1 |
| no binding | B2 |
| no binding | B3 |
| no binding | B4 |

What follows are binders tested against T2, STMN1^42–149, yeast two-hybrid fusion in the same assay as above.

| binding | Binder |
| --- | --- |
| no binding | B1 |
| no binding | B2 |
| no binding | B3 |
| no binding | B4 |

The binders below were run against T3, full-length STMN1, yeast two-hybrid fusion in the same assay as above.

| binding | Binder |
| --- | --- |
| binds | B1 |
| binds | B2 |
| no binding | B3 |
| binds | B4 |

Each binder was assayed against T4, full-length STMN2, yeast two-hybrid fusion in the same assay as above.

| binding | Binder |
| --- | --- |
| binds | B1 |
| binds | B2 |
| binds | B3 |
| binds | B4 |

What follows are binders tested against T5, GST-STMN1 fusion protein (assay: pull-down; GST-STMN1 from E. coli immobilized on sepharose beads, incubated with lysates of transfected HEK293T cells 16 h at 4°C; washed three times (Tris, 150 mM NaCl, 1 mM EDTA); immunoblot with anti-GFP; only the target purified).

| binding | Binder |
| --- | --- |
| no binding | B5 |
| binds | B6 |
| no binding | B7 |

From PMC4605623
